# From the supplement of paper PMC8728848
# Some of the results follow.
# Assays:
# Experiment in all cases: glycan array binding signal (z-score within array); higher = stronger binding
# Details in all cases: glycan notation: IUPAC condensed, linker removed
# Gal(b1-3)GalNAc(b1-3)Gal = molecular target: Gal(b1-3)GalNAc(b1-3)Gal
# How it was run: (§1)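 Glycan array data came from 3228 arrays in the Consortium for Functional Glycomics database, and only arrays with an available protein sequence were kept. Glycan names were put into IUPAC-condensed notation, and columns mapping to the same glycan were averaged. The binding signal is a within-array Z-score, averaged across arrays of one protein sequence run at different concentrations or buffers and across linkers. A negative Z-score can be read as non-binding.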
# [1] = molecular target: Gal(b1-3)GalNAc(b1-3)Gal(a1-4)Gal(b1-4)Glc
# How it was run: as §1
# [2] = molecular target: Gal(b1-3)GalNAc(b1-4)Gal(b1-4)Glc
# How it was run: as §1
# [3] = molecular target: Gal(b1-3)GalNAc(b1-4)[Neu5Ac(a2-3)]Gal(b1-4)Glc
# How it was run: as §1
# Gal(b1-3)GlcNAc = molecular target: Gal(b1-3)GlcNAc
# How it was run: as §1
# [4] = molecular target: Gal(b1-3)GlcNAc(a1-3)Gal(b1-4)GlcNAc
# How it was run: as §1
# [5] = molecular target: Gal(b1-3)GlcNAc(a1-6)Gal(b1-4)GlcNAc
# How it was run: as §1
# Gal(b1-3)GlcNAc(b1-2)Man = molecular target: Gal(b1-3)GlcNAc(b1-2)Man
# How it was run: as §1
# [6] = molecular target: Gal(b1-3)GlcNAc(b1-2)Man(a1-3)[Gal(b1-3)GlcNAc(b1-2)Man(a1-6)]Man(b1-4)GlcNAc(b1-4)GlcNAc
# How it was run: as §1
# [7] = molecular target: Gal(b1-3)GlcNAc(b1-2)Man(a1-3)[Gal(b1-3)GlcNAc(b1-2)Man(a1-6)]Man(b1-4)GlcNAc(b1-4)[Fuc(a1-6)]GlcNAc
# How it was run: as §1
# [8] = molecular target: Gal(b1-3)GlcNAc(b1-2)Man(a1-3)[GlcNAc(b1-4)][Gal(b1-3)GlcNAc(b1-2)Man(a1-6)]Man(b1-4)GlcNAc(b1-4)GlcNAc
# How it was run: as §1
# [9] = molecular target: Gal(b1-3)GlcNAc(b1-2)[Gal(b1-3)GlcNAc(b1-6)]Man(a1-6)[Gal(b1-3)GlcNAc(b1-2)Man(a1-3)]Man(b1-4)GlcNAc(b1-4)GlcNAc
# How it was run: as §1
# [10] = molecular target: Gal(b1-3)GlcNAc(b1-3)Gal(b1-3)GlcNAc
# How it was run: as §1
# [11] = molecular target: Gal(b1-3)GlcNAc(b1-3)Gal(b1-4)Glc
# How it was run: as §1
# [12] = molecular target: Gal(b1-3)GlcNAc(b1-3)Gal(b1-4)GlcNAc
# How it was run: as §1
# [13] = molecular target: Gal(b1-3)GlcNAc(b1-3)Gal(b1-4)GlcNAc(b1-2)Man(a1-3)[Gal(b1-3)GlcNAc(b1-3)Gal(b1-4)GlcNAc(b1-2)Man(a1-6)]Man(b1-4)GlcNAc(b1-4)GlcNAc
# How it was run: as §1
# [14] = molecular target: Gal(b1-3)GlcNAc(b1-3)Gal(b1-4)GlcNAc(b1-2)[Gal(b1-3)GlcNAc(b1-3)Gal(b1-4)GlcNAc(b1-6)]Man(a1-6)[Gal(b1-3)GlcNAc(b1-3)Gal(b1-4)GlcNAc(b1-2)Man(a1-3)]Man(b1-4)GlcNAc(b1-4)[Fuc(a1-6)]GlcNAc
# How it was run: as §1
# [15] = molecular target: Gal(b1-3)GlcNAc(b1-3)Gal(b1-4)GlcNAc(b1-3)Gal(b1-4)GlcNAc(b1-2)[Gal(b1-3)GlcNAc(b1-3)Gal(b1-4)GlcNAc(b1-3)Gal(b1-4)GlcNAc(b1-6)]Man(a1-6)[Gal(b1-3)GlcNAc(b1-3)Gal(b1-4)GlcNAc(b1-3)Gal(b1-4)GlcNAc(b1-2)Man(a1-3)]Man(b1-4)GlcNAc(b1-4)[Fuc(a1-6)]GlcNAc
# How it was run: as §1
# [16] = molecular target: Gal(b1-3)GlcNAc(b1-3)Gal(b1-4)GlcNAc(b1-6)[Gal(b1-3)GlcNAc(b1-3)]Gal(b1-4)Glc
# How it was run: as §1
# [17] = molecular target: Gal(b1-3)GlcNAc(b1-3)Gal(b1-4)[Fuc(a1-3)]GlcNAc
# How it was run: as §1
# [18] = molecular target: Gal(b1-3)GlcNAc(b1-3)Gal(b1-4)[Fuc(a1-3)]GlcNAc(b1-6)[Gal(b1-3)GlcNAc(b1-3)]Gal(b1-4)Glc
# How it was run: as §1
# [19] = molecular target: Gal(b1-3)GlcNAc(b1-3)GalNAc
# How it was run: as §1
# [20] = molecular target: Gal(b1-3)GlcNAc(b1-6)Gal(b1-4)GlcNAc
# How it was run: as §1
# [21] = molecular target: Gal(b1-3)GlcNAc(b1-6)GalNAc
# How it was run: as §1
# [22] = molecular target: Gal(b1-3)GlcNAc(b1-6)[Gal(b1-3)]GalNAc
# How it was run: as §1
# Gal(b1-3)GlcNAc6S = molecular target: Gal(b1-3)GlcNAc6S
# How it was run: as §1
# [23] = molecular target: Gal(b1-3)[Fuc(a1-4)]GlcNAc
# How it was run: as §1
# [24] = molecular target: Gal(b1-3)[Fuc(a1-4)]GlcNAc(b1-2)Man
# How it was run: as §1
# [25] = molecular target: Gal(b1-3)[Fuc(a1-4)]GlcNAc(b1-2)Man(a1-3)[Gal(b1-3)[Fuc(a1-4)]GlcNAc(b1-2)Man(a1-6)]Man(b1-4)GlcNAc(b1-4)GlcNAc
# How it was run: as §1
# [26] = molecular target: Gal(b1-3)[Fuc(a1-4)]GlcNAc(b1-2)Man(a1-3)[Gal(b1-3)[Fuc(a1-4)]GlcNAc(b1-2)Man(a1-6)]Man(b1-4)GlcNAc(b1-4)[Fuc(a1-6)]GlcNAc
# How it was run: as §1
# [27] = molecular target: Gal(b1-3)[Fuc(a1-4)]GlcNAc(b1-3)Gal(b1-3)[Fuc(a1-4)]GlcNAc
# How it was run: as §1
# [28] = molecular target: Gal(b1-3)[Fuc(a1-4)]GlcNAc(b1-3)Gal(b1-4)GlcNAc
# How it was run: as §1
# [29] = molecular target: Gal(b1-3)[Fuc(a1-4)]GlcNAc(b1-3)Gal(b1-4)[Fuc(a1-3)]GlcNAc
# How it was run: as §1
# [30] = molecular target: Gal(b1-3)[Fuc(a1-4)]GlcNAc(b1-6)GalNAc
# How it was run: as §1
# [31] = molecular target: Gal(b1-3)[GlcNAc(b1-6)]GalNAc
# How it was run: as §1
# [32] = molecular target: Gal(b1-3)[Neu5Ac(a2-6)]GalNAc
# How it was run: as §1
# [33] = molecular target: Gal(b1-3)[Neu5Ac(a2-6)]GlcNAc(b1-4)Gal(b1-4)Glc
# How it was run: as §1
binder,measurement,setting,value
PpFlo2 (Pichia pastoris) (protein) MGSSHHHHHHSSGLVPRGSHMDDSGNGDNSDTAYGCDITTNAVDGFDATIYQYNANDLRLIRDPTFMSTGYLGRNVLNKISGVTVPGFNIWNPSSRTATVYGVKNVNYYNMVLELKGYFKADVSGDYKLTLSHIDDSSMLFFGKETAFKCCDAGSIPLNEAPTDYSLFTIKPSNQVNSEVISATQYLEAGKYYPVRIVFVNALERARFDFKLTIPSGAVLDDFQNYIYQFGDLDENSCHE,glycan array binding signal (z-score),Gal(b1-3)GalNAc(b1-3)Gal,-0.272
same,glycan array binding signal (z-score),[1],-0.299
same,glycan array binding signal (z-score),[2],-0.297
same,glycan array binding signal (z-score),[3],-0.296
same,glycan array binding signal (z-score),Gal(b1-3)GlcNAc,-0.272
same,glycan array binding signal (z-score),[4],-0.268
same,glycan array binding signal (z-score),[5],-0.297
same,glycan array binding signal (z-score),Gal(b1-3)GlcNAc(b1-2)Man,-0.228
same,glycan array binding signal (z-score),[6],-0.133
same,glycan array binding signal (z-score),[7],-0.254
same,glycan array binding signal (z-score),[8],-0.213
same,glycan array binding signal (z-score),[9],-0.178
same,glycan array binding signal (z-score),[10],-0.232
same,glycan array binding signal (z-score),[11],-0.286
same,glycan array binding signal (z-score),[12],-0.261
same,glycan array binding signal (z-score),[13],-0.174
same,glycan array binding signal (z-score),[14],-0.258
same,glycan array binding signal (z-score),[15],-0.145
same,glycan array binding signal (z-score),[16],-0.122
same,glycan array binding signal (z-score),[17],-0.228
same,glycan array binding signal (z-score),[18],-0.231
same,glycan array binding signal (z-score),[19],-0.285
same,glycan array binding signal (z-score),[20],-0.287
same,glycan array binding signal (z-score),[21],-0.265
same,glycan array binding signal (z-score),[22],-0.267
same,glycan array binding signal (z-score),Gal(b1-3)GlcNAc6S,-0.275
same,glycan array binding signal (z-score),[23],-0.299
same,glycan array binding signal (z-score),[24],-0.269
same,glycan array binding signal (z-score),[25],-0.357
same,glycan array binding signal (z-score),[26],-0.259
same,glycan array binding signal (z-score),[27],-0.294
same,glycan array binding signal (z-score),[28],-0.259
same,glycan array binding signal (z-score),[29],-0.278
same,glycan array binding signal (z-score),[30],-0.262
same,glycan array binding signal (z-score),[31],0.516
same,glycan array binding signal (z-score),[32],-0.299
same,glycan array binding signal (z-score),[33],-0.271
